# From paper PMC7819943, “Rice protein-binding microarrays: a tool to detect cis-acting elements near promoter regions in rice”
# This is one part of the list.
# Biological target: T1, OsWOX13 (Oryza sativa, UniProt Q5QMM3 1-267)
# T1 sequence: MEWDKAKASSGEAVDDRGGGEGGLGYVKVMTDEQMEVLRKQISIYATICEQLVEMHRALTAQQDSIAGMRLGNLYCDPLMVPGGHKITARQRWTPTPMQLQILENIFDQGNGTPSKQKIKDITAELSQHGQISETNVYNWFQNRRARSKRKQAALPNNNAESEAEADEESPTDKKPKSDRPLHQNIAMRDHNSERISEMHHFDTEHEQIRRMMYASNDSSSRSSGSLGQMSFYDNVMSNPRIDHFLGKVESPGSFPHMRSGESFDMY
# Experiment: protein-binding microarray (RPBM); PBS, 2% BSA, 51.3 ng/ul salmon testes DNA, 50 uM zinc acetate, 200 nM TF, 25 C, 1 h; high values mean tight binding
# Settings: protein: recombinant; tags: N-terminal polyhistidine and DsRed monomer fusion (pET32a); label: CyDye5-dUTP incorporated in the synthesized complementary strand; 3' TTTTT single-stranded linker to array surface; dsDNA, one strand shown
# Summary of the method: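 Binding signal is reported as fluorescence intensity per feature (arbitrary units) from an Axon 4000B scanner. Incubation used 200 nM of each Ni–NTA-purified, N-terminally polyhistidine- and DsRed-fused transcription factor from E. coli BL21-CodonPlus on a double-stranded custom Agilent array for 1 h at 25 °C, with 50 µM zinc acetate in the buffer, followed by washing.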
row,Sequence,binding signal
1,TTCTAATTAGATTTGATAAAGTACTAATATTCATTTTGGTCGGAGTCACCTAGTGCAG,63100 fluorescence intensity (a.u.)
2,TACTTAATTAATTACCACGTTATGTTTTACGGGCGGCTAACGGAGTCACCTAGTGCAG,45600 fluorescence intensity (a.u.)
3,CACTTGACTTAATTATCTCTTGAGGCCACAATATATAGCTCGGAGTCACCTAGTGCAG,27700 fluorescence intensity (a.u.)
4,TTGTGATTGATTTCACACCCAAACAACAAGTAGTCAGCTACGGAGTCACCTAGTGCAG,61300 fluorescence intensity (a.u.)
5,TTGATGATAAGAATTAATTAGGATTTTCAAATAAACAAACCGGAGTCACCTAGTGCAG,20700 fluorescence intensity (a.u.)
6,ATAGTTGATGATTCTATCATAAAACCGGTTTGTGATAGATCGGAGTCACCTAGTGCAG,7250 fluorescence intensity (a.u.)
7,CAAGATTGGGCGAGGGAGGGAGGAGTCCAGATCCTGCCTCCGGAGTCACCTAGTGCAG,3250 fluorescence intensity (a.u.)
8,AGCACATCACCTGATTGCACTGCACTGCTCTTGCTTTCCCCGGAGTCACCTAGTGCAG,6270 fluorescence intensity (a.u.)
9,CATAAGATTATTAGTAATATCTAAATACACCGGCCCAACCCGGAGTCACCTAGTGCAG,3540 fluorescence intensity (a.u.)
10,AGTGATAAATTTGAGTGATTACTATATGACACCGTTGTGTCGGAGTCACCTAGTGCAG,55700 fluorescence intensity (a.u.)
11,ATAATTGTGAATTTCTCGGGTCACTACTGTTCATTGTGCGCGGAGTCACCTAGTGCAG,8120 fluorescence intensity (a.u.)
12,AAATTCCGAATTTGATTCTTAATTAAGGCGAGCTATTCACCGGAGTCACCTAGTGCAG,3490 fluorescence intensity (a.u.)
13,TGACGAATTAACTGACGACCGCGGCTCAATCGATCGATCTCGGAGTCACCTAGTGCAG,3540 fluorescence intensity (a.u.)
14,TCGGATCGGATTAATTTTCACTAGCCTTAATTAGCATAGCCGGAGTCACCTAGTGCAG,8950 fluorescence intensity (a.u.)
15,CTGTGTGGATGAACTCTGATTGGATTCCAGCTACTATTTGCGGAGTCACCTAGTGCAG,12800 fluorescence intensity (a.u.)
16,ATAGCTAGATGGGCTGGATTGACCCGCGTCCGCGTGGCCGCGGAGTCACCTAGTGCAG,5350 fluorescence intensity (a.u.)
17,CTCCAATTTAAAATTTCAACCCAATTTTAAACTTTGCCCACGGAGTCACCTAGTGCAG,9760 fluorescence intensity (a.u.)
18,ACCAAAATTATTAAAATCCGGTGTAATACGCCCTCTCGCACGGAGTCACCTAGTGCAG,5770 fluorescence intensity (a.u.)
19,CGCGTAGATTGAAACTGGACAAGCAGTACATGTACAAAATCGGAGTCACCTAGTGCAG,17900 fluorescence intensity (a.u.)
20,CTTGATGATTAGTAGTAGTACGATTTACGAGTGCTAATGGCGGAGTCACCTAGTGCAG,26700 fluorescence intensity (a.u.)
21,TCACTCACTCACTCATCACGCTTTCGATCATCCGCTTTTCCGGAGTCACCTAGTGCAG,3170 fluorescence intensity (a.u.)
22,TCCATGTTAATTAATTTGATCAGTTGGACGCATATTTGCGCGGAGTCACCTAGTGCAG,35600 fluorescence intensity (a.u.)
23,TGATCCAATTATTTATTTGTAACTACTCAAACGCGTACCTCGGAGTCACCTAGTGCAG,16400 fluorescence intensity (a.u.)
24,ACCAATCCGAAATGATTAGAGACGCCAAAAGGCCCACTTTCGGAGTCACCTAGTGCAG,4980 fluorescence intensity (a.u.)
25,AATAAAATTTACGCTAATGTCGGATTCCTTTTACAAAGTTCGGAGTCACCTAGTGCAG,3570 fluorescence intensity (a.u.)
26,CATCATTTAGTAATTTAGAAAGCGTGCACATAATGAGTTTCGGAGTCACCTAGTGCAG,3240 fluorescence intensity (a.u.)
27,AGTAACGTGAGTAGATTAGTGCTTACACCAATACATCCATCGGAGTCACCTAGTGCAG,3460 fluorescence intensity (a.u.)

row,Sequence,binding signal
1,GTTTAGTGCTCAGACGAAGCAACGTACTAATGCATGACACCGGAGTCACCTAGTGCAG,9550 fluorescence intensity (a.u.)
2,TTGACAAATCAACATCTATCTCATATATGCAGGTAATATTCGGAGTCACCTAGTGCAG,6460 fluorescence intensity (a.u.)
3,CGCTAATTTATTGTGTTCATAATAGAGTACTACTACTAATCGGAGTCACCTAGTGCAG,21700 fluorescence intensity (a.u.)
4,GACATACAGATTAGGTGGTAAATAAATCAAGTCGGGCGTACGGAGTCACCTAGTGCAG,6120 fluorescence intensity (a.u.)
5,ATAGATAATATGATAATTTTGTATCAGTGACTAGACCATACGGAGTCACCTAGTGCAG,11200 fluorescence intensity (a.u.)
6,TAGTGATTATTATGAAATGACCATATAAGTTTATGCTTACCGGAGTCACCTAGTGCAG,16700 fluorescence intensity (a.u.)
7,ACTGATTAGTGGATATGCTTTATATATGTAATTAGGATGCCGGAGTCACCTAGTGCAG,53000 fluorescence intensity (a.u.)
8,CCAAATTTTAGTAATTATATAAGAAATCCTGCCAAAATTTCGGAGTCACCTAGTGCAG,11300 fluorescence intensity (a.u.)
9,CAAATATAGTGTAATTATATTATAACTATTATGTAACTACCGGAGTCACCTAGTGCAG,4600 fluorescence intensity (a.u.)
10,CTACCCAATCAAATAATATCCCCATCCACATCTTGATTCTCGGAGTCACCTAGTGCAG,5230 fluorescence intensity (a.u.)
11,GCAAATGTAGGTAAGATTGAGATTGACTTTATGTGGGTCCCGGAGTCACCTAGTGCAG,12500 fluorescence intensity (a.u.)
12,TAATTATTGATTTTCACGCCCATTCTTTATGTCATACTATCGGAGTCACCTAGTGCAG,14500 fluorescence intensity (a.u.)
13,CTGAAAATTAACGAAACAAGAGCACATTGTCTCTACAACTCGGAGTCACCTAGTGCAG,4630 fluorescence intensity (a.u.)
14,TTCAGGATTGAATTTTAGACTCGATTGCAAATTGAAGGACCGGAGTCACCTAGTGCAG,32000 fluorescence intensity (a.u.)
15,ATTTATTATACTAAATTATGTCATATTTTATTTTAGGTTACGGAGTCACCTAGTGCAG,7170 fluorescence intensity (a.u.)
16,AGTATAATTATTGTTTATAGTACAAAGACTTCAAATCTTGCGGAGTCACCTAGTGCAG,16600 fluorescence intensity (a.u.)
17,TTTAATTTTATGTTTTGATTTTAATCTATATCTCTTCTCTCGGAGTCACCTAGTGCAG,22600 fluorescence intensity (a.u.)
18,TGATTATTGATGACGGACGTAAGTTAAAGGATTATATTAACGGAGTCACCTAGTGCAG,3520 fluorescence intensity (a.u.)
19,GCCTCGTTTGATTGGTCACATGCATGGAAAGAGACTCACACGGAGTCACCTAGTGCAG,27000 fluorescence intensity (a.u.)
20,TAGGGCCCCACTGATTGATCGTGAGCTGATTGCAAGTTAACGGAGTCACCTAGTGCAG,23700 fluorescence intensity (a.u.)
21,AATATGATTATCTCTTACAAAGCCTATACAACCAAATTACCGGAGTCACCTAGTGCAG,10600 fluorescence intensity (a.u.)
22,TTAACGGGTGATTAACGATTAATTAATTACTAATGATGTTCGGAGTCACCTAGTGCAG,45500 fluorescence intensity (a.u.)
23,CTTGAGCAATTCAATCAAGTCGAGTTATAGTTCTAACTTGCGGAGTCACCTAGTGCAG,17700 fluorescence intensity (a.u.)
24,CAACATTATTGGATTTAGGTTAAATCATTTAGCATCATCTCGGAGTCACCTAGTGCAG,3580 fluorescence intensity (a.u.)
25,TGTTGCTGTTGATTAGCTCTCACCTAATTTGTTGTGTATGCGGAGTCACCTAGTGCAG,18100 fluorescence intensity (a.u.)
26,TTCTTGACTGAAGATACTGTGTGTATGAGTTCTCATCGTACGGAGTCACCTAGTGCAG,10700 fluorescence intensity (a.u.)
27,GTAAATACACTAAAATTATATATGTAATTTAGGGACTTACCGGAGTCACCTAGTGCAG,9660 fluorescence intensity (a.u.)
